{"source": "the supplement of paper PMC4723716", "note": "The full ranking holds about 3,600 compounds; the median of “viability index relative to DMSO control” is about 0.81, and the lowest 2% start at about 0.13. This is one part of the list.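 Also: 384-well serum-free SaLSSA: MitoTracker Red CMXRos staining with saponin lysis, high-content imaging, treated-well particle count divided by plate-mean count of DMSO wells.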", "data": [{"test_system": "Plasmodium falciparum NF54 stage V gametocytes", "experiment": "viability index relative to DMSO control (fraction); higher = less gametocyte killing", "conditions": "1.25 µM, incubation time: 72 h", "values": [{"smiles": "CCn1c(N=Nc2ccc(OC)cc2)nc2ccccc21", "viability index": 0.269}, {"smiles": "CCn1c(SCc2ccc([N+](=O)[O-])cc2)nc2sc3c(c2c1=O)CCN(C)C3", "viability index": 0.969}, {"smiles": "CCCCN(CCCC)CCCNc1ncnc2c1[nH]c1ccc(C)cc12", "viability index": 0.744}, {"smiles": "CC1(C)Cc2c(sc(NC(=O)CCl)c2C#N)CO1", "viability index": 0.556}, {"smiles": "CC(=O)N(C1=C(N2CCCCC2)C(=O)c2ccccc2C1=O)c1cccc(Cl)c1", "viability index": 0.144}, {"smiles": "COc1ccc(OC)c(-c2ccc(O)c(CNCC3(N4CCCCC4)CCCCC3)c2)c1", "viability index": 0.357}, {"smiles": "Cc1ccc(C)c(N2C(=O)CC(Cc3ccc(Cl)cc3)C2=O)c1", "note": "(stereo unspecified)", "viability index": 0.746}, {"smiles": "CC1=C(CC(=O)c2cccs2)C(=O)c2ccccc2C1=O", "viability index": 0.748}, {"smiles": "Oc1ccccc1Nc1nc(-c2ccccc2O)nc2ccccc12", "viability index": 0.567}, {"smiles": "COc1ccc(OCC(=O)Nc2cccc(-c3nc4ncccc4o3)c2)cc1", "viability index": 0.76}, {"smiles": "COc1ccc(OC)c(C2CC(=O)N3CN(Cc4ccccc4)CSC3=C2C#N)c1", "note": "(stereo unspecified)", "viability index": 1.02}, {"smiles": "CN(C)c1oc(-c2ccc(Cl)cc2Cl)nc1[P+](c1ccccc1)(c1ccccc1)c1ccccc1", "viability index": 0.152}, {"smiles": "CCOC(=O)c1sc(NC(=O)CSc2nnc(CNC(=O)COc3ccccc3)n2C)c(C(=O)OCC)c1C", "viability index": 1.06}, {"smiles": "O=C(Nc1ccc(Oc2cccnc2)cc1)C1CCN(Cc2ccc3nonc3c2)CC1", "viability index": 0.913}, {"smiles": "O=c1c2c([nH]c3cc(Cl)ccc13)CCCC2", "viability index": 0.829}, {"smiles": "CCCS(=O)(=O)c1c(S(=O)(=O)CCC)c2ccc(C(C)=O)cn2c1C(=O)c1ccc(C)cc1", "viability index": 0.853}, {"smiles": "Cc1n(N)c2ccccc2[n+]1CC(=O)c1ccc([N+](=O)[O-])cc1", "viability index": 0.785}, {"smiles": "O=[N+]([O-])c1ccc(C=NNc2nc(Nc3ccccc3)nc(Nc3ccccc3)n2)o1", "viability index": 0.0664}, {"smiles": "COc1ccc(Cl)cc1NC(=O)C1c2ccccc2C(=O)N(CC(C)C)C1c1cccs1", "note": "(stereo unspecified)", "viability index": 0.426}, {"smiles": "Cc1ccc(-c2c[n+](Cc3cccc(C)c3)c3n2CCC3)cc1", "viability index": 0.883}, {"smiles": "COc1ccc(CCN2C(=O)c3ccc(Oc4ccc(NC(=O)c5oc(=O)c6ccccc6c5-c5ccccc5)cc4)cc3C2=O)cc1OC", "viability index": 0.95}, {"smiles": "CC(=O)Nc1nc(C)c(-c2csc(Nc3ccc(C)cc3)n2)s1", "viability index": 0.351}, {"smiles": "COC(=O)c1ccc(C2C3=C(O)CC(c4ccc(C)cc4)CC3=Nc3ccccc3N2C(=O)c2cccs2)cc1", "note": "(stereo unspecified)", "viability index": 0.472}, {"smiles": "N=c1n(Cc2ccccc2)c2ccccc2n1CC(O)c1ccc(Br)cc1", "note": "(stereo unspecified)", "viability index": 0.804}, {"smiles": "Cc1ccc(S(=O)(=O)NC(=O)Nc2ccc(N(C)C)cc2)cc1", "viability index": 0.921}, {"smiles": "CCOC(=O)C1=C(C)N=c2sc(=Cc3cc(Br)ccc3O)c(=O)n2C1c1ccc(OC)c(OC)c1", "note": "(stereo unspecified)", "viability index": 0.928}, {"smiles": "Cc1cc(OC(C)C(=O)N2CCc3ccccc32)ccc1Cl", "note": "(stereo unspecified)", "viability index": 1.36}, {"smiles": "Cc1ccc(-n2cc(C(=O)N(C)Cc3ccccc3)c3ccccc3c2=O)cc1C", "viability index": 0.979}, {"smiles": "CCOc1ccc2c(C)nc(NC(N)=NC(C)=O)nc2c1", "viability index": 0.688}, {"smiles": "COc1ccc(C2C(C(=O)Nc3cccc(C(F)(F)F)c3)c3ccccc3C(=O)N2C2CCCCC2)cc1", "note": "(stereo unspecified)", "viability index": 0.679}, {"smiles": "Cc1c(C)n(Cc2ccc(F)cc2)c2ccc(C(=O)NCc3ccco3)cc12", "viability index": 0.791}, {"smiles": "COC(=O)C1=C(C)NC2=C(C(=O)CC(c3ccc(OC)c(OC)c3)C2)C1c1cccs1", "note": "(stereo unspecified)", "viability index": 0.297}, {"smiles": "COc1cc(NC(=O)Cn2ncc3c(=O)oc4ccccc4c32)cc(OC)c1OC", "viability index": 0.859}, {"smiles": "CCOC(=O)c1c(NC(=O)C(C)Sc2nnc(CNC(=O)c3ccco3)n2-c2cccc(Cl)c2)sc2c1CCCC2", "note": "(stereo unspecified)", "viability index": 0.967}, {"smiles": "COc1ccc(C2C(C(=O)OC3CCCCC3)=C(C)Nc3nnnn32)cc1", "note": "(stereo unspecified)", "viability index": 0.751}, {"smiles": "CC(=O)C1C(=O)c2c(cccc2[N+](=O)[O-])C1=Nc1ccccc1C", "note": "(stereo unspecified)", "viability index": 0.73}, {"smiles": "COc1ccccc1NC(=O)CCN1CCCC(C)C1", "note": "(stereo unspecified)", "viability index": 0.789}, {"smiles": "COc1ccc2c(C)nc(Nc3nc(C)cc(-c4ccccc4)n3)nc2c1", "viability index": 0.278}, {"smiles": "COC(=O)C1=C(C)NC(=Cc2cc(C)n(-c3cc(C)ccc3C)c2C)C1=O", "viability index": 0.363}, {"smiles": "Cc1ccc(C2CC(C(F)(F)F)n3ncc(C(=O)Nc4ccc(Cl)cc4)c3N2)cc1", "note": "(stereo unspecified)", "viability index": 0.669}, {"smiles": "COc1ccc(C=C2N=C(c3ccc(Cl)cc3)N(c3ccccc3)C2=O)cc1OC", "viability index": 1.03}, {"smiles": "COc1ccc(C2CC(c3ccccc3Cl)n3ncnc3N2C(=O)C2CC2)cc1", "note": "(stereo unspecified)", "viability index": 0.808}, {"smiles": "O=C(CSc1nc(NCc2ccccc2)c2ccccc2n1)NCc1ccco1", "viability index": 1.05}, {"smiles": "CC(C)CC(NC(=O)C(=Cc1ccco1)NC(=O)c1ccccc1)C(=O)OCc1ccccc1", "note": "(stereo unspecified)", "viability index": 0.755}, {"smiles": "Cc1ccccc1C=C1SC(=Nc2ccccc2)NC1=O", "viability index": 0.653}, {"smiles": "COc1ccc(-c2c[n+](CC(=O)c3ccc(Cl)cc3)c3n2CCC3)cc1", "viability index": 0.987}, {"smiles": "Cc1cccc2cc(CNC3CCOC(C)(C)C3)c(N3CCCC3)nc12", "note": "(stereo unspecified)", "viability index": 0.768}, {"smiles": "CCC(Sc1nnc(-c2ccc(C)cc2)c(-c2ccc(C)cc2)n1)C(=O)NCCOC", "note": "(stereo unspecified)", "viability index": 0.647}, {"smiles": "Cc1cc(F)ccc1NC(=O)C(C)n1c2ccccc2c2nc(=O)cc(C)n21", "note": "(stereo unspecified)", "viability index": 0.946}, {"smiles": "CCCN(CCC)S(=O)(=O)c1cc(Br)cc2c1N(C(C)=O)CC2", "viability index": 1.1}, {"smiles": "Cc1cc(Nc2ccc(Cl)c(C)c2)n2nc(C)nc2n1", "viability index": 1.02}, {"smiles": "Cn1c(=O)n(C)c2cc(NC(=O)CCl)ccc21", "viability index": 0.504}, {"smiles": "COc1ccc(OC)c(NC2=C(Cl)C(=O)N(c3ccc(C)c(Cl)c3)C2=O)c1", "viability index": 0.981}, {"smiles": "CCOC(=O)c1c(NC(=O)CSc2nnc(CNC(=O)c3cccs3)n2-c2ccccc2OC)sc2c1CCC2", "viability index": 1.07}, {"smiles": "CCOC(=O)c1c(NC(=O)CCC(=O)OC)sc2c1CC(C)(C)SC2", "viability index": 1.14}, {"smiles": "CN(C)C=Nc1nn(C)cc1C(=O)Nc1ccc(F)c(Cl)c1", "viability index": 0.967}]}]}
